In all, about 410,000 compounds went through this assay and about 530 (0.13%) were called active. Inconclusive results, whose numbers are uncertain, are shown with a selection of clear calls. Calls come from the whole dose curve; as a rule, active = well fitted inhibition curve with a large enough effect; inconclusive = small, poorly fitted or top-dose-only effect, or another doubt; inactive = no such curve, though single readings can be large or run the other way. A potency beside an inconclusive call is a rough fit, not a confirmed value.
experiment: qHTS of GLP-1 Receptor Inverse Agonists: Cytotox Screen; conditions: HEK293 cAMP-luciferase reporter cells, luminescence, 24 h; activity change, negative = inhibition: at 38.3 µM (top of the series) unless noted
Summary of the method: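 1536-well qHTS counterscreen of the MLSMR; 200 cells/uL, 12 h pre-incubation, 23 nL cpd, 24 h at 37 deg C 5% CO2, luciferase detection reagent, 12 min RT, luminescence. Inhibition = undesired.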
% is set by controls: 0 for no effect and ±100 for the full control effect; potency is the fitted concentration of half-maximal effect.

| SMILES | Potency | activity change, negative = inhibition |
| --- | --- | --- |
| CCOC(=O)N1CCN(C(=S)NC(=O)c2c(-c3c(Cl)cccc3Cl)noc2C)CC1 | inconclusive: 2.24 µM [inhibitor, full curve, poor fit] |  |
| Cc1ccccc1/C=C1\SC(=S)N(/N=C/c2cc([N+](=O)[O-])ccc2O)C1=O | inconclusive: 11.2 µM [inhibitor, single point] |  |
| COc1ccc(/C=N/NC(=O)CCn2c3ccccc3c3ccccc32)cc1O | inconclusive: 3.55 µM [inhibitor, full curve, poor fit] |  |
| Cc1cc(NC(=O)CN2C(=O)NC(CC(C)C)C2=O)ccc1Br (stereo not drawn) | inconclusive: 11.2 µM [inhibitor, partial curve, poor fit] |  |
| CCCOC(=O)c1ccc(NC(=O)C(=O)NCC2CCCO2)cc1 (stereo not drawn) | inconclusive: 12.6 µM [inhibitor, single point] |  |
| O=[N+]([O-])c1ccc(O)c(C=Nc2cccc3ncccc23)c1 | inconclusive: 10 µM [inhibitor, single point] |  |
| Cc1cc(=O)n2[nH]c(-c3ccccc3)cc2n1 |  | inactive: -12.8% |
| COc1ccc(-c2[nH]c(-c3ccc(SC)cc3)nc2SCC(=O)Nc2nccs2)cc1 | inconclusive: 28.2 µM [inhibitor, single point] |  |
| Cc1cccc(C)c1OCCCCc1c(C)n[nH]c1C | inconclusive: 28.2 µM [inhibitor, single point] |  |
| CCn1c(=O)cc(OCC(=O)Nc2cc(C)ccn2)c2ccccc21 | inconclusive: 15.8 µM [inhibitor, partial curve, poor fit] |  |
| CCc1ccccc1NC(=S)NCCSc1ccc(Cl)cc1 | inconclusive: 20 µM [inhibitor, single point] |  |
| O=C(c1ccc(S(=O)(=O)c2cccc(Cl)c2)c([N+](=O)[O-])c1)N1CCN(c2ccccn2)CC1 | inconclusive: 4.47 µM [inhibitor, partial curve, poor fit] |  |
| COC(=O)c1cn(C(=O)c2cc(OC)c(OC)c(OC)c2)c2ccccc12 |  | inactive: -6.15% |
| COc1ccc(C(=O)/C=C/C(=O)N(Cc2ccccc2OC)C(C(=O)NC2CCCCC2)c2ccncc2)c(O)c1 (stereo not drawn) | inconclusive: 14.1 µM [inhibitor, single point] |  |
| N#CC1=C(N)Oc2cc3ccccc3cc2C1c1cccnc1 (stereo not drawn) | inconclusive: 5.62 µM [inhibitor, partial curve] |  |
| COc1ccc(NC(=O)C2=C(C)Nc3ncnn3C2c2ccc[nH]2)cc1 (stereo not drawn) |  | inactive: 2.84% |
| Cc1ccc(C(=O)NCCc2c[nH]c3ccccc23)s1 |  | inactive: 2.13% |
| Cc1c(C(=O)NCc2ccccc2CN2CCCC2)oc2c(F)cccc12 | inconclusive: 25.1 µM [inhibitor, partial curve, poor fit] |  |
| CC1(Cc2ccc(Cl)s2)C(=O)Nc2c(Cl)ccc(Cl)c21 (stereo not drawn) | inconclusive: 28.2 µM [inhibitor, single point] |  |
| CCCn1c(CC)nc([N+](=O)[O-])c1S(=O)(=O)c1ccccc1 | inconclusive: 28.2 µM [inhibitor, single point] |  |
| CC1=C(C(=O)Nc2ccc(C)cc2C)C(c2cccc([N+](=O)[O-])c2)n2nc(C(=O)OC(C)C)nc2N1 (stereo not drawn) | inconclusive: 28.2 µM [inhibitor, single point] |  |

| SMILES | Potency | activity change, negative = inhibition |
| --- | --- | --- |
| Cc1c(C(=O)N(C)C)sc2c1c(=O)n(-c1ccc(F)cc1)c(=O)n2Cc1ccccc1C#N |  | inactive: -2.93% |
| Cc1ccc(CNC(=O)Cc2ccc(NC(=O)N3CCSc4ncccc43)cc2)cc1 |  | inactive: 4.08% |
| Cc1cccc(Oc2nc(-c3ccccn3)nc3ccccc23)c1 | inconclusive: 0.501 µM [inhibitor, full curve, poor fit] |  |
| CS(=O)(=O)c1ccc(Nc2nc(C(N)Cc3ccc(Cl)cc3)cs2)cc1 (stereo not drawn) | inconclusive: 10 µM [inhibitor, single point] |  |
| Cc1ccc(C)c(C(=O)O/N=C(\N)c2ccc(Br)cc2)c1 | inconclusive: 25.1 µM [inhibitor, partial curve, poor fit] |  |
| O=C(CSc1nnc(-c2cccc(F)c2)c(-c2cccc(F)c2)n1)NC1CCCCC1 |  | inactive: 4.28% |
| CCOC(=O)C1CCCN(C(=O)c2cc(-c3ccco3)nc3ccccc23)C1 (stereo not drawn) |  | inactive: -2.85% |
| Cc1cc(C)nc(SCNC(=O)c2ccc(F)cc2)n1 | inconclusive: 12.6 µM [inhibitor, partial curve, poor fit] |  |
| CS(=O)(=O)N(CCC#N)Cc1ccc(/C=C2\C(=O)Nc3ccccc32)o1 | inconclusive: 14.1 µM [inhibitor, single point] |  |
| CCCCCn1nnnc1-c1nc2cc3ccccc3cc2[nH]c1=O | inconclusive: 12.6 µM [inhibitor, partial curve, poor fit] |  |
| O=C1/C(=C/N(C(=O)c2ccco2)c2ccc(Cl)cc2)Sc2ccccc21 |  | inactive: 0.281% |
| CCOc1ccc(CCNC(=O)COC(=O)/C=C/c2ccc(OC)c(OC)c2)cc1OCC | inconclusive: 0.501 µM [inhibitor, full curve, poor fit] |  |
| COc1ccc(OCc2nc3ccccc3n2Cc2ccccc2Cl)cc1 |  | inactive: 5.42% |
| COc1cccc(N2CCN(c3ncnc4c3cnn4-c3ccc(C)cc3C)CC2)c1 | inconclusive: 31.6 µM [inhibitor, partial curve, poor fit] |  |
| CCN1C(=NCc2cccc(Cl)c2)N[C@@H](c2cccc(F)c2)C(C(=O)OC)=C1C | inconclusive: 31.6 µM [inhibitor, single point] |  |
| CC(C)(C)S(=O)N1Cc2cc(C(=O)NCC(F)(F)F)nc(-c3cccc(-c4cccc(F)c4)c3)c2[C@@H]1CCO (stereo partly drawn) | inconclusive: 8.91 µM [inhibitor, partial curve, poor fit] |  |
| CN(C)c1ccc(/C=C2\NC(=S)N(Cc3ccccc3)C2=O)cc1 | inconclusive: 28.2 µM [inhibitor, single point] |  |
| c1ccc2c(c1)C1=NCCN1c1ccccc1-2 | inconclusive: 3.98 µM [inhibitor, partial curve, poor fit] |  |
| CCOc1cc(NC(=S)Nc2cccc(OC)c2)c(OCC)cc1NC(=O)c1ccc(C)cc1 |  | inactive: -16.4% |
| O=C(c1ccco1)N1CCN(C(=O)c2cc3cc([N+](=O)[O-])ccc3oc2=O)CC1 | inconclusive: 22.4 µM [inhibitor, single point] |  |
| O=C(O)c1cccc(N2CCCC2=O)c1 |  | inactive: 10.4% |

| SMILES | Potency | activity change, negative = inhibition |
| --- | --- | --- |
| O=C1C2CCCCC2C(=O)N1c1ccc(NC2CCCCC2)c([N+](=O)[O-])c1 (stereo not drawn) | inconclusive: 11.2 µM [inhibitor, partial curve, poor fit] |  |
| COc1cc(/C=C2\SC(=S)N(CCC(=O)Nc3ccc(O)cc3)C2=O)cc(OC)c1OC | inconclusive: 7.94 µM [inhibitor, partial curve, poor fit] |  |
| COc1cc(N/N=C/c2ccccc2O)ncn1 | inconclusive: 11.2 µM [inhibitor, single point] |  |
| CN1CCC(OC(c2ccccc2)c2ccc(Cl)cc2)C1 (stereo not drawn) | inconclusive: 10 µM [inhibitor, single point] |  |
| C=CCOC(=O)C1=C[C@@H](c2ccc(Br)cc2)C[C@@H](OCc2ccc(CO)cc2)O1 | inconclusive: 12.6 µM [inhibitor, single point] |  |
| CC(NC(=O)CCl)c1ccc(Cl)c(Cl)c1 (stereo not drawn) | inconclusive: 11.2 µM [inhibitor, single point] |  |
| Cc1cc(Nc2ccccc2)nc(NCc2ccccc2)n1 | inconclusive: 28.2 µM [inhibitor, single point] |  |
| C/C(=N\Nc1ccc([N+](=O)[O-])cc1[N+](=O)[O-])c1ccc(-n2nncc2C(C)(C)C)cc1 | inconclusive: 12.6 µM [inhibitor, partial curve, poor fit] |  |
| CCOc1ccccc1C(=O)NCCNC(=O)c1ccccc1OCC |  | inactive: 13.9% |
| CCOC(=O)CN(C(=O)CSc1nnc(-c2ccc(OC)c(OC)c2)o1)c1ccccc1 | inconclusive: 0.501 µM [inhibitor, full curve, poor fit] |  |
| COC(=O)C1=CN(CC2CCCO2)C=C(C(=O)OC)C1c1cc(OC)c(OC)c(OC)c1 (stereo not drawn) |  | inactive: 115% |
| CCOC(=O)c1c(C)[nH]c(C(=O)COC(=O)[C@H](C)N2C(=O)C3CCCCC3C2=O)c1C (stereo partly drawn) | inconclusive: 11.2 µM [inhibitor, single point] |  |
| Cc1cccc(N2CCN(C(=O)c3ccc4ccccc4c3)CC2C)c1 (stereo not drawn) | inconclusive: 11.2 µM [inhibitor, single point] |  |
| CCC(=O)c1ccc(OCC(=O)Nc2ccccc2N2CCCCC2)cc1 | inconclusive: 28.2 µM [inhibitor, single point] |  |
| Cc1nnnn1/C(=C\c1ccccc1)C(=O)OCC(=O)Nc1ccc(Cl)cc1F | inconclusive: 10 µM [inhibitor, partial curve, poor fit] |  |
| COc1ccc(-n2nc(C(=O)NCC(=O)NCCCN3CCOCC3)c3ccccc3c2=O)cc1Cl | inconclusive: 28.2 µM [inhibitor, single point] |  |
| COCCOC(=O)C1=C(C)N(c2ccccc2)C(=O)NC1c1cccc([N+](=O)[O-])c1 (stereo not drawn) |  | inactive: -13.4% |
| CC(C)c1ccc(/C=C/C(=O)Nc2ccc(CN3CCOCC3)cc2)cc1 | inconclusive: 20 µM [inhibitor, single point] |  |
| O=C(O)Cn1cc(/C=N/Nc2ccc([N+](=O)[O-])cn2)c2ccccc21 | inconclusive: 28.2 µM [inhibitor, single point] |  |
| O=S(=O)(Nc1cccc(CO)c1)c1cccs1 | inconclusive: 5.01 µM [inhibitor, full curve, poor fit] |  |
| Cc1ccc(-c2nn(-c3ccccc3)cc2C=C2SC(=S)N(CCS(=O)(=O)O)C2=O)cc1 | inconclusive: 10 µM [inhibitor, single point] |  |

— PubChem BioAssay AID624418 (National Center for Advancing Translational Sciences (NCATS), 2012)
